Screen size: about 150,000 compounds; about 540 (0.36%) showed an effect of 50% or more. The list shows a part of the results.

As a reminder, the % Inhibition is the drop in the measured response relative to a control, in per cent.

In this assay the test system is Plasmodium falciparum. Briefly: Primary screen in NF54 nanoGlo assay, in single point, at 2uM, 72h; a lower Z score goes with more inhibition. It is filed as functional, Erythrocyte. The note with it: timepoint 72 hour.
As to `Cc1ccc(NS(=O)(=O)c2c(C)[nH]c(C)c2-c2nnc(C3CCC3)o2)c(C)c1`, the “% Inhibition” value is -15% and the Z score was found to be 2.95.

Take `N#CC1(c2nc3ccccc3[nH]2)Cc2c(F)cccc2N2CCCC21` (stereo unspecified): the “% Inhibition” value was -9% and the Z score came out at 1.06.

As for `CO[C@H]1[C@H](NC(=O)c2ccncc2)c2ccccc2C12CCN(C(=O)Cc1c(F)cccc1F)CC2`, the “% Inhibition” value is reported as -5% and the Z score was found to be 0.98.

In the case of `CC(C)[C@@H]1CCCCN1C(=O)CCc1ccccn1`, the “% Inhibition” value is given as -12% and the Z score is recorded as 1.77.

With `Cc1ccc(OCc2ccc(C(=O)N[C@H]3CCc4c(nc(C)n4CCO)C3)o2)c(C)c1`, the “% Inhibition” value came out at 6% and the Z score is listed as -0.66.

For `Cc1nc(C2CC2)nc(N2CCN(C(=O)N(C)C)CC2)c1Cc1ccccc1F`, the “% Inhibition” value was determined as 34% and the Z score is -4.29.

On to `Cc1ccccc1N(C(=O)[C@H]1CCOC1)C(C)C`, for which the “% Inhibition” value is -14% and the Z score worked out at 2.17.

In the case of `O=C(COc1cccc(N2C(=O)C3C4CCC(C4)C3C2=O)c1)c1ccccc1` (stereo unspecified), the “% Inhibition” value was -13% and the Z score is recorded as 2.01.

Consider `COc1ccc(N2CCN(c3ccc(OC)cc3)C2c2ccco2)cc1`, for which the “% Inhibition” value is recorded as -14% and the Z score came to 1.95.

`O=C(CCc1nc(-c2ncccn2)no1)N(C1CCC1)C1CCC1`: the “% Inhibition” value was determined as 2% and the Z score is recorded as -0.28.

Turning to `O=C(Nc1ccc(Br)cc1)C1CCN(c2cc(C(F)(F)F)ncn2)CC1`, the “% Inhibition” value was -6% and the Z score is on record as 0.67.

For `O=C(Nc1ccc(N2CCN(C(=O)c3cccc(F)c3)CC2)nc1)c1ccc(F)cc1F`, the “% Inhibition” value is -14% and the Z score worked out at 2.61.

In the case of `CCCN(C(=O)c1n[nH]c(C)c1C)C1CCN(c2cc(C)nc(C)n2)CC1`, the “% Inhibition” value is given as 7% and the Z score is given as -0.86.

For `O=c1[nH]nc(CN(CCCN2CCOCC2)c2ccccc2)s1`, the “% Inhibition” value is on record as -11% and the Z score is given as 1.38.

`CC(C)(C)O[C@@H](C(=O)N1CCc2cnccc21)c1ccccc1`: the “% Inhibition” value is -6% and the Z score is recorded as 0.53.

`N#Cc1cccc(S(=O)(=O)Nc2ccccc2N2CCOC2=O)c1`: the “% Inhibition” value amounted to 1% and the Z score is on record as -0.17.

Consider `CCOc1ccc(-n2c(CN3CCN(C(=O)Nc4cccc(OC)c4)CC3)nc3cccnc32)cc1`, for which the “% Inhibition” value is reported as -4% and the Z score amounted to 0.47.

As to `COCCCNC(=O)[C@H]1CCCN(C(=O)c2nnc(C(=O)Nc3ccccc3)s2)C1`, the “% Inhibition” value is recorded as -5% and the Z score worked out at 0.48.

`O=C1CN(C(=O)c2ccc(S(=O)(=O)N3CCCC3)cc2)c2ccccc2N1`: the “% Inhibition” value is listed as -8% and the Z score was determined as 1.06.

For the compound `COC[C@@H](O)CN(Cc1ccc2c(c1)OCO2)Cc1c(-c2ccccc2)noc1N1CCCCC1`, the “% Inhibition” value was -7% and the Z score is 0.89.

Regarding `C[C@@H](C(=O)O)N1CCc2cc(-c3ccccc3)oc2C1`, the “% Inhibition” value is reported as -8% and the Z score is listed as 0.9.

With `CC1(C)CC[C@@H](c2nc(-c3cnc(C4CC4)nc3N)no2)O1`, the “% Inhibition” value is 0% and the Z score is -0.04.

`Cn1ccnc1CN(CCO)C(=O)CCc1cn2ccccc2n1`: the “% Inhibition” value is -16% and the Z score is given as 3.39.

With `Cc1cc(C)nc(NCCc2ncccc2C)n1`, the “% Inhibition” value is given as -3% and the Z score came out at 0.49.

With `Cc1cccc(NC(=O)CN2CCN(c3ccnc4nncn34)CC2)c1C`, the “% Inhibition” value came to 20% and the Z score is recorded as -2.52.

For the compound `Cc1ccccc1CC(=O)N1CCC(C2(c3cccnc3)NC(=O)N(CC3CCCO3)C2=O)CC1` (stereo unspecified), the “% Inhibition” value is -13% and the Z score is given as 1.69.

On to `O=C(Nc1ccc(Br)cc1F)c1cccnc1O[C@H]1CCOC1`, for which the “% Inhibition” value worked out at 3% and the Z score is -0.5.

For `COc1cccc(CNC(=O)CCn2cnc3c(-c4ccc(C)cc4)noc3c2=O)c1`, the “% Inhibition” value stood at 4% and the Z score is -0.66.

Turning to `CC1CCN(Cc2nnnn2CC(=O)N2CCN(Cc3nccn3C)CC2)CC1`, the “% Inhibition” value is listed as -12% and the Z score turned out to be 1.14.

As for `CCC[C@H](C)NC(=O)Cn1cc(C(F)(F)F)ccc1=O`, the “% Inhibition” value is reported as 3% and the Z score was -0.58.

As for `Cc1cc(C)n(CCCS(=O)(=O)N(C)C)n1`, the “% Inhibition” value is reported as -8% and the Z score amounted to 1.4.

As for `CC1CCCCN1C(=O)N[C@@H]1COC[C@@H]1n1cc(CO)nn1` (stereo partly specified), the “% Inhibition” value is -4% and the Z score is on record as 0.64.

Regarding `O=C(COc1ccccc1F)Nc1ccc2c(c1)CCC(=O)N2`, the “% Inhibition” value is -10% and the Z score came out at 1.76.

For the compound `Cc1cc(C(=O)NCCN(C)S(C)(=O)=O)nc(C)n1`, the “% Inhibition” value was determined as 0% and the Z score was 0.02.

Take `CCOC(=O)[C@H]1CCCN(C(=O)Cn2cc(NC(=O)c3ccccc3F)cn2)C1`: the “% Inhibition” value is -8% and the Z score amounted to 1.15.

Take `CCn1c(=O)c(-c2noc(C(=O)N3CCN(C4CCCCC4)CC3)n2)nn(-c2ccc(C)cc2)c1=O`: the “% Inhibition” value came out at 7% and the Z score is listed as -1.25.

As to `COC(C)(C)C(=O)N1CCC(CO)(CCCc2ccccc2)CC1`, the “% Inhibition” value is -6% and the Z score came to 0.81.

As for `O[C@@H]1COC2(CCN(Cc3ccc4c(c3)OCCO4)CC2)C1`, the “% Inhibition” value is -3% and the Z score stood at 0.58.

`CN(C[C@H]1COc2ccccc2O1)C(=O)c1ccc(Cl)o1`: the “% Inhibition” value was -3% and the Z score was determined as 0.36.

Regarding `CCc1sc(C(=O)N(C)CC(N)=O)cc1C`, the “% Inhibition” value was -2% and the Z score turned out to be 0.23.

As for `CCCc1cc(C(=O)OCC)nn1C1CCN(S(=O)(=O)c2ccccc2C#N)CC1`, the “% Inhibition” value was -9% and the Z score came to 1.

`O=C(CNc1ccc(Cl)cc1)N1CCC[C@H]1c1ccc2c(c1)OCCCO2`: the “% Inhibition” value was -10% and the Z score came to 1.13.

With `CC(=O)N1CCc2cccc(NC(=O)N(C)C3CCN(C)CC3C)c21` (stereo unspecified), the “% Inhibition” value stood at 0% and the Z score is listed as -0.01.

Consider `CC(C)Cc1nc2nccc(-c3ccc4c(c3)OCCCO4)n2n1`, for which the “% Inhibition” value is given as -13% and the Z score was found to be 2.38.

Take `Cc1[nH]c(-c2ncccn2)nc(=O)c1CC(=O)NC1CCCCC1C` (stereo unspecified): the “% Inhibition” value is given as -2% and the Z score is given as 0.16.

Consider `O=C(O)C1CC2CCCCC2N1CC(=O)N1CCc2ccccc2C1` (stereo unspecified), for which the “% Inhibition” value is listed as -4% and the Z score came out at 0.65.

In the case of `CCN1CCC[C@H](NC(=O)c2cc(C)n(C)c2C)C1`, the “% Inhibition” value is -13% and the Z score is 1.66.

Turning to `CCOc1ccnc(NC2(CN3CCCCC3)CC2)n1`, the “% Inhibition” value is -11% and the Z score worked out at 1.74.

Regarding `Cn1cc(S(=O)(=O)NCc2cscn2)cn1`, the “% Inhibition” value was -4% and the Z score worked out at 0.56.

Regarding `CN(Cc1cc(-c2ccccc2)n[nH]1)C(=O)Cn1nnnc1N`, the “% Inhibition” value is recorded as -8% and the Z score was determined as 0.82.

Turning to `CCC(C)(C)NC(=O)[C@H](C)S(=O)(=O)c1cccc(Cl)c1`, the “% Inhibition” value was -3% and the Z score stood at 0.69.

As to `O=C(Cc1cccc2ccccc12)N1CCC(c2ccsc2)CC1`, the “% Inhibition” value is recorded as -12% and the Z score was found to be 1.76.

`CCOc1cc(C(=O)N2C3CCC2CC(CC(F)F)C3)on1` (stereo unspecified): the “% Inhibition” value was -10% and the Z score turned out to be 1.2.

The values above are taken from ChEMBL document CHEMBL4888484, “Replenishing the malaria drug discovery pipeline: Screening and hit evaluation of the MMV Hit Generation Library 1 (HGL1) against asexual blood stage Plasmodium falciparum ,using a nano luciferase reporter read-out” (2022).
